Laboratory results from PubChem BioAssay AID504339 (National Center for Advancing Translational Sciences (NCATS), 2011).
“And” between values parts separate entries of the source, which are not always exact repeats. Identical values can stand only once. The whole screen tested about 390,000 compounds, of which about 17,000 (4.4%) were called active. The inconclusive results got no clear call from the source; some entries with a clear call stand among them for comparison. Calls follow the shape of the dose curve; as a rule, active = well fitted inhibition curve with a large enough effect; inconclusive = small, poorly fitted or top-dose-only effect; inactive = no such curve, though single readings can be large or run the other way. Where the call is inconclusive, the potency comes from a doubtful curve fit.

These compounds were tested against Lysine-specific demethylase 4A (Homo sapiens) (UniProt O75164) (assay: qHTS Assay for Inhibitors of JMJD2A-Tudor Domain). Conditions: AlphaScreen JMJD2A-Tudor / H3K4me3 peptide binding; activity change, negative = inhibition: at 114 µM (top of the series).
Chain of UniProt O75164 (O75164 whole entry, looked up, the tested form may be a part): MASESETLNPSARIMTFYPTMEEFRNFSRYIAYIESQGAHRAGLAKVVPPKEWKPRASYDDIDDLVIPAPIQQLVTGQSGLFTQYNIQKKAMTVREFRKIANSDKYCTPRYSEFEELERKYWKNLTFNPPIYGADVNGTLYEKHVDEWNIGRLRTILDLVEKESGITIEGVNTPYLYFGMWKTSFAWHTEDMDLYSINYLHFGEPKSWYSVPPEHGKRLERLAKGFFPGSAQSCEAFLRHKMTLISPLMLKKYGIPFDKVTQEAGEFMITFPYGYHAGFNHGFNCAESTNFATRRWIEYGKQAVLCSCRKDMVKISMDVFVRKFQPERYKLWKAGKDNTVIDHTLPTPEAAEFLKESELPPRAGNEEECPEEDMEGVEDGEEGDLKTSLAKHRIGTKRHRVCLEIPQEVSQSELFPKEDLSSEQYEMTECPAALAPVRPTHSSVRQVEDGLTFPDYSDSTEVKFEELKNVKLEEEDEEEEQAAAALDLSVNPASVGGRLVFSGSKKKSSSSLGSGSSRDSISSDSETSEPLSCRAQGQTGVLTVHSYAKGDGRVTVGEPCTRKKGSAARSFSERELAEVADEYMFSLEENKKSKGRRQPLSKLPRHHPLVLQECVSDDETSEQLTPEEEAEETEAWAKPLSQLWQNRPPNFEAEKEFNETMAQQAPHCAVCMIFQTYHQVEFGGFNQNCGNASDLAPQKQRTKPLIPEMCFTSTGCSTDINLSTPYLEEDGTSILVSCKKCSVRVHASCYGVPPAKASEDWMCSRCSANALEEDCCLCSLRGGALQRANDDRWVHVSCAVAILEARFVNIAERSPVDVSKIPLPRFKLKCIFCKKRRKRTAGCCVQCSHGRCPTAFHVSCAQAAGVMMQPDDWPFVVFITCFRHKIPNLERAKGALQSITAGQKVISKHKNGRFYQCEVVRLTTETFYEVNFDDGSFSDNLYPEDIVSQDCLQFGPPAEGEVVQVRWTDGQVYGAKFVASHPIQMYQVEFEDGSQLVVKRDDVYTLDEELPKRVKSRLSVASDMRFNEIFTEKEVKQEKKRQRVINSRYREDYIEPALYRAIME
% is scaled to controls: 0 for no effect and ±100 for the full control effect; potency is read from the fitted curve at half-maximal effect; tags tell the direction and shape of the fitted curve.
Also: nearly all actives have a fitted effect of over 50% in size.

Potency, inactive:
CCc1cccc(NC(=O)Cn2c(-c3ccc(F)cc3)cc(C(C)=O)c2C)c1, COC(=O)c1c(NC(=O)CN2CCN(c3ncccn3)CC2)sc(C(N)=O)c1C, CC(C)C(CC(=O)NCc1ccco1)c1ccco1 (centres undefined), O=C(O)CSCC(=O)N1CCN(c2cc(C(F)(F)F)nc3ccccc23)CC1, COc1ccccc1N1CCN(S(=O)(=O)c2ccc3c(c2)CCCN3C(C)=O)CC1, Cc1ccc(N(C(=O)c2ccncc2)C2C=CS(=O)(=O)C2)cc1 (centres undefined), CCCN(CCC)S(=O)(=O)c1ccc(NC(=O)COc2ccccc2)cc1, O=c1c2c(O)cc(O)cc2oc2ccc(O)c(O[C@@H]3O[C@H](CO)[C@@H](O)[C@H](O)[C@H]3O[C@H]3O[C@H](CO)[C@@H](O)[C@H](O)[C@H]3O)c12, Cc1c(Br)c([N+](=O)[O-])nn1CC(=O)N1CCCc2ccccc21, O=C(CN1c2cccc3cccc(c23)S1(=O)=O)NCCc1ccc(F)cc1, COc1ccc(N(CC(=O)NN=C2CCCC2)S(=O)(=O)c2ccccc2)cc1, COc1ccccc1-c1nc(N)n[nH]1, OCCNc1nc(Nc2ccccc2Cl)nc(N2CCCC2)n1, Cc1cc(C)cc(NC(=O)Cn2nnc(C(=O)NCc3ccccc3Cl)c2N)c1, CC(C)c1cc(C(=O)NC(C)c2ccccc2)no1 (centres undefined), COc1ccc2nc(NC(=O)CSC(C)C(=O)Nc3cc(C)on3)sc2c1 (centres undefined)

Potency, inconclusive:
O=C(CCN1C(=O)/C(=C\c2ccccc2Cl)SC1=S)N1CCN(c2ccccc2)CC1 10 µM [inhibitor, partial curve, poor fit], COc1ccc(NC(=O)c2ccc(NC(=O)CN3CCN(c4ccc(O)cc4)CC3)cc2)cc1 31.6 µM [inhibitor, partial curve], CSc1ccc(C2C(C#N)=C(N)N(c3ccccc3)C3=C2C(=O)CCC3)cc1 (centres undefined) 79.4 µM [inhibitor, partial curve], Cc1ccccc1CNC(=O)CN1CCSc2ccccc21 56.2 µM [inhibitor, partial curve], Nc1nc2nc(-c3ccccc3)cc(=O)n2[nH]1 79.4 µM [inhibitor, partial curve, poor fit], COc1ccccc1C1c2[nH]c3ccccc3c2CCN1Cc1ccc(NC(C)=O)s1 (centres undefined) 50.1 µM [inhibitor, partial curve], CC(C)c1ccc(-c2cc(C(=O)NN3CCN(C)CC3)c3ccccc3n2)cc1 10 µM [inhibitor, full curve, poor fit], CCCn1c(N)c(C(=O)CSc2nnc(C3CC3)n2C2CC2)c(=O)[nH]c1=O 39.8 µM [inhibitor, single point], O=C(C1=C(O)C(=O)N(c2ccccc2)C1c1ccc([N+](=O)[O-])cc1)c1cccs1 (centres undefined) 89.1 µM [inhibitor, partial curve], Cc1cccc(-n2c(-c3csc4ccccc34)n[nH]c2=S)c1 89.1 µM [inhibitor, single point], C/C(=N/NC(=O)CN(c1ccccc1)S(=O)(=O)c1ccccc1)c1ccccc1O 25.1 µM [inhibitor, full curve, poor fit], CCOc1cc(O)c(-c2[nH]ncc2-c2nc(C)cs2)cc1CC 50.1 µM [inhibitor, partial curve], N#Cc1nc(-c2cccc(Cl)c2)oc1N1CCC(C(N)=O)CC1 100 µM [inhibitor, partial curve], COc1ccc(C(=O)NCC(c2ccc(N(C)C)cc2)N2CCCC2)cc1 (centres undefined) 56.2 µM [inhibitor, partial curve], COc1ccc(-c2[nH]ncc2CN(C)Cc2cc(C)[nH]n2)c(F)c1 35.5 µM [inhibitor, single point], Cc1nn(-c2ccccc2)c(N)c1Sc1ccccc1[N+](=O)[O-] 56.2 µM [inhibitor, partial curve], Cc1ccc(OC(=O)c2cccc(C(=O)Oc3ccc(C)cc3)n2)cc1 28.2 µM [inhibitor, single point], Cn1cccc1C(=O)OCc1cc(Cl)cc2c1OCOC2 70.8 µM [inhibitor, partial curve, poor fit], O=S(=O)(c1ccc2[nH]c3c(c2c1)CCCC3)N1CCN(c2cccc(C(F)(F)F)c2)CC1 28.2 µM [inhibitor, partial curve], CCOC(=O)N1CCN(Cc2c(O)ccc3ccccc23)CC1 79.4 µM [inhibitor, partial curve], O=C(N[C@@H]1C/C=C\C[C@H](CC(=O)N(CCO)Cc2ccccc2)C(=O)N[C@@H](Cc2c[nH]c3ccccc23)COC1=O)OCC1c2ccccc2-c2ccccc21 56.2 µM [inhibitor, partial curve, poor fit], COc1ccc(/C=C/C(=O)c2ccc(NC3=NCCCS3)cc2)cc1OC 50.1 µM [inhibitor, partial curve], COc1ccc(N2CCN(c3nc4ccccn4c(=O)c3/C=C(\C#N)S(=O)(=O)c3ccccc3)CC2)cc1 6.31 µM [inhibitor, partial curve], CCOC(=O)c1c(-c2ccc(OC)cc2)csc1NC(=O)CNCc1ccco1 56.2 µM [inhibitor, partial curve, poor fit], CCCCN(C(=O)c1cc(-c2ccco2)nc2ccccc12)c1c(N)n(CCC)c(=O)[nH]c1=O 56.2 µM [inhibitor, partial curve], O=C(NNC(=S)NC(=O)c1cccnc1)c1ccccc1 89.1 µM [inhibitor, single point], S=C(NCc1ccco1)Nc1cc(-c2ccccc2)[nH]n1 15.8 µM [inhibitor, full curve, poor fit], O=Cc1ccc(-c2ccc([N+](=O)[O-])cc2Cl)o1 28.2 µM [inhibitor, full curve, poor fit], Cc1ccc(-c2nc(CN(C)Cc3cccc4cnccc34)c(C)o2)s1 56.2 µM [inhibitor, partial curve, poor fit], CCC(C)Nc1nc(SC(C(C)=O)C(C)=O)nc(N(C)C)n1 (centres undefined) 17.8 µM [inhibitor, full curve], O=C(O)c1ccc(CN(Cc2ccccc2)S(=O)(=O)c2ccc(Cl)cc2)cc1 35.5 µM [inhibitor, single point], N#C/C(=N\Nc1ccc(Cl)cc1)C(=O)c1ccsc1 44.7 µM [inhibitor, partial curve], N#C/C(=C\c1cc([N+](=O)[O-])c(N2CCOCC2)cc1N1CCOCC1)c1nc2ccccc2[nH]1 28.2 µM [inhibitor, partial curve], CC(=O)Nc1ccc(NC(=O)CSc2nnc(C)c(=O)n2N)cc1 35.5 µM [inhibitor, single point]

Potency, active:
O=C1Nc2ccccc2C12OCC(COc1ccc(Cl)cc1)O2 (centres undefined) 79.4 µM, CCC(C(=O)Nc1cc(-c2cn3cccnc3n2)ccc1C)c1ccccc1 (centres undefined) 22.4 µM, CCCCCC(=O)Nc1cc(S(=O)(=O)O)cc2cc(S(=O)(=O)O)cc(O)c12 1.12 µM, CCOc1cc(CNc2ccc3c(c2)OCCO3)cc(Br)c1OCC(N)=O 50.1 µM, Cc1cc(C)cc(-n2ccnc2SCC(=O)Nc2ccc(C)cc2C)c1 39.8 µM, C#CCOCCOCCOCCNc1nc(N2CCN(C(=O)[C@H](CCC(=O)O)n3cc([C@@H](N)[C@H](C)CC)nn3)CC2)nc(N2CCN(C(=O)[C@H](CCCCN)n3cc([C@@H](N)CC(N)=O)nn3)CC2)n1 5.62 µM, COc1ccccc1OCCCCN1CCC(C)CC1 12.6 µM, COc1cc(OC)c2c(-c3ccccc3)cc(=O)oc2c1C(CCN1CCN(c2ccccc2)CC1)c1ccc(N(C)C)cc1 (centres undefined) 8.91 µM and 4.47 µM, OCCN1CCN(CC(O)COC(c2ccc(F)cc2)c2ccc(F)cc2)CC1 (centres undefined) 7.08 µM, CCOC(=O)C1CN(c2cc3c(cc2F)c(=O)c(C(=O)O)cn3CC)OC1C(=O)OCC (centres undefined) 56.2 µM, O=C(NCCCNCc1ccccc1)c1ccc(/C=N/O)nc1 7.94 µM, CN(C)CC(C)(C)CNC(=O)C1CCN(CCCc2ccccc2)CC1 56.2 µM, c1ccc2c(C[n+]3csc4ccccc43)cccc2c1 17.8 µM, Cc1ccc(CN2CCN(/N=C\c3cccc([N+](=O)[O-])c3)CC2)cc1 44.7 µM, Cc1ccnc2nc(C(=O)Nc3nnc(-c4ccc(Cl)cc4)o3)nn12 17.8 µM, O=c1c(N2CCN(c3cccc(Cl)c3)CC2)csc2ccccc12 39.8 µM, N#Cc1c2nc3ccccc3nc2n2cc(NC(=O)c3ccc(F)cc3)ccc12 17.8 µM

Activity change, negative = inhibition, inactive:
COc1ccccc1NS(=O)(=O)c1cc(NC(=O)CC(C)(C)C)ccc1N1CCOCC1 -9.02% [at 11.4 µM]

Activity change, negative = inhibition, inconclusive:
COc1ccc(OC)c2sc(N3CCN(C(=O)c4ccc([N+](=O)[O-])s4)CC3)nc12 -42.8% [inhibitor]
